# Assay results reported in PubChem BioAssay AID1347073 (National Center for Advancing Translational Sciences (NCATS), 2019).
# The campaign covered roughly 45,000 compounds. About 200 (0.44%) were called active. Another 7% or so got no clear call; they are omitted. Calls come from the whole dose curve; as a rule, active = well fitted activation curve with a large enough effect; inconclusive = small, poorly fitted or top-dose-only effect; inactive = no such curve, though single readings can be large or run the other way. The list shows a part of the results.
# Experiment: qHTS of TDP-43 Inhibitors: NCGC Sytravon Library Screen; note: 0% is about no effect; nearly all actives have a fitted effect of over 55% in size
# Details: yeast TDP-43 toxicity rescue, BacTiter-Glo growth, 24 h; series mostly up to 46.1 µM; growth rescue (activation): at the top concentration
# How it was run: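 TDP-43-expressing yeast, pregrown in raffinose, seeded at OD600 0.02 in galactose medium with compound for 24 hr at 30 deg C. Growth read by BacTiter-Glo luminescence, so rescue of toxicity appears as activation.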
row,Compound,growth rescue (activation)
1,O=C(c1cc(-c2ccccn2)nc2ccc(Br)cc12)N1CCN(S(=O)(=O)c2ccccc2)CC1,inactive: 2.56%
2,CN1CCCC(OC(=O)CCCCC(=O)OC2CCCN(C)C2)C1 (stereo not drawn),inactive: -23.1%
3,CCCc1cc(=O)[nH]c(SCC(=O)Nc2cc(S(=O)(=O)N3CCOCC3)ccc2N(CC)CC)n1,inactive: 13.2%
4,Cc1cc(C)nc(N2CCCC(C(=O)Nc3ccc(F)cc3)C2)n1 (stereo not drawn),inactive: 5.04%
5,Cc1c(Cl)cccc1NC(=S)NC(=O)CCN1C(=O)c2ccccc2C1=O,inactive: 13.3%
6,CC1CCN(S(=O)(=O)c2ccc(NC(=O)CN3CCCCCC3)cc2)CC1,inactive: -15.3%
7,CCC1CCCCN1C(=O)Cn1nc([N+](=O)[O-])c(Cl)c1C (stereo not drawn),inactive: 5.74%
8,CCN(CC)C(=O)c1cccc(-c2csc(C(NC(C)=O)c3cccc(OC)c3)n2)c1 (stereo not drawn),inactive: 12.1%
9,Cc1ccc(C)c(NC(=O)c2cc(-c3ccccc3)nn2-c2ccccc2)c1,inactive: -1.8%
10,CC(NC(=O)c1ccccc1)c1ccc(F)cc1 (stereo not drawn),inactive: 1.51%
11,COC(=O)c1ccc(CN2C(=O)NC3(CCCCC3C)C2=O)o1 (stereo not drawn),inactive: 3.06%
12,Cc1ccc(C(=O)NNS(=O)(=O)c2ccc(F)cc2)cc1,inactive: 8.7%
13,CC(C)N1CCN(Cc2ccsc2)CC1CCO (stereo not drawn),inactive: -6.04%
14,CCN(CC)S(=O)(=O)c1ccc(N2CCOCC2)c(NC(=O)Cc2ccc(Cl)cc2)c1,inactive: 8.74%
15,CC(C)[C@H](NC(=O)c1ccccc1F)C(=O)OCC(=O)NC(=O)NC1CCCCC1,inactive: 27.8%
16,O=C(c1ccc(Cl)c(S(=O)(=O)N2CCOCC2)c1)N1CCCCC1,inactive: -2.84%
17,Cc1ccc(-n2nc(C)c3c(C)c(CCC(=O)Nc4ccc(CN5CCCC5)cc4)c(C)nc32)cc1,inactive: -13.4%
18,CC(C)(C)NC(=O)CSc1nc(O)cc(=O)[nH]1,inactive: 25.1%
19,COCCSc1nnc(NC(=O)C2CC(=O)N(CCc3ccc(F)cc3)C2)s1 (stereo not drawn),inactive: 13.5%
20,c1csc(CNc2nc(NCC3CCCCC3)c3sccc3n2)c1,inactive: 16.5%
21,CCCCC(CC)CNC(=O)CCS(=O)(=O)c1cccc2nonc12 (stereo not drawn),inactive: 22.2%
22,C/C(=N/NC(=O)CN1CCN(Cc2ccccc2)CC1)c1ccc([N+](=O)[O-])cc1,inactive: 8.71%
23,CCOC(=O)c1c(C)[nH]c(C(=O)OCC(=O)NC(C)(C)C)c1C,inactive: 0.971%
24,CCCCC(C(=O)NC1CCCC1)N(C(=O)c1snc(C(N)=O)c1N)c1ccc(C)cc1 (stereo not drawn),inactive: -15.7%
25,COC(=O)c1sccc1N(C)S(C)(=O)=O,inactive: -28.9%
26,Cc1ccc(NCc2ccccc2O)cc1C,inactive: 1.83%
27,CC1CCCCC1NC(=O)C1CCC(CNc2c(N3CCCCC3)c(=O)c2=O)CC1 (stereo not drawn),inactive: 23.7%

row,Compound,growth rescue (activation)
1,CCNC(=O)C1(C)CCCN1C(=O)c1ccc(F)c(Cl)c1 (stereo not drawn),inactive: 12.2%
2,O=C1CCCN2N=C(SCC(=O)Nc3cccc(C(F)(F)F)c3)SC2=N1,inactive: 8.92%
3,Cc1ccc(Cl)c2c1=NC(=O)C=2c1[nH]c(=S)[nH]c1O,inactive: 17%
4,COc1ccc(C2=NN(C(=O)CCCC(=O)O)C(c3cn(-c4ccccc4)nc3-c3ccccc3)C2)cc1 (stereo not drawn),inactive: -2.61%
5,COc1ccc(-c2ccc(CCC(=O)O)n2-c2ccc(O)cc2)cc1,inactive: -2.92%
6,O=c1c2ccccc2cnn1Cc1n[nH]c(=S)n1-c1ccccc1,inactive: -9.3%
7,COCCn1c(C)cc(C(=O)CSc2nc3nc(C)cc(C)n3n2)c1C,inactive: 7.8%
8,CCN1CCCC1CNc1ncnc2c1[nH]c1ccc(Cl)cc12 (stereo not drawn),inactive: 25.5%
9,COCCNC(=O)CN1C(=O)NC2(CCOc3ccccc32)C1=O (stereo not drawn),inactive: -21.3%
10,O=[N+]([O-])c1cccc(S(=O)(=O)Nc2ccc(S(=O)(=O)Nc3nccs3)cc2)c1,inactive: -1.86%
11,COc1ccc(/C=N/NC(=O)CN2CCSCC2)cc1C,inactive: 20.1%
12,S=c1[nH]nc(COc2ccc(Cl)cc2)n1-c1ccccc1,inactive: 2.52%
13,COc1cc(CCC(=O)OCC(=O)Nc2ccc(F)cc2F)cc(OC)c1OC,inactive: 26.5%
14,COc1ccccc1NS(=O)(=O)c1cc(N)ccc1N1CCCCC1,inactive: -7.39%
15,O=C(C1=C(O)C(=O)N(Cc2ccco2)C1c1cccc([N+](=O)[O-])c1)c1ccco1 (stereo not drawn),inactive: 4.47%
16,CC(=O)Nc1ccc(NC(=O)CSc2nnc(-c3ccco3)o2)cc1,inactive: -5.52%
17,COCc1ccc(CN2CCCC(CO)(Cc3ccccc3)C2)o1 (stereo not drawn),inactive: 6.89%
18,CCN(CC)c1ccc(NC(=O)C2CC3CCC2C3)cc1 (stereo not drawn),inactive: 8.1%
19,Cc1ccc(CNC(=O)c2ccc(S(=O)(=O)Nc3c(C)n(C)n(-c4ccccc4)c3=O)cc2)cc1,inactive: -0.786%
20,CNC(=S)Nc1ccc(Cc2ccncc2)cc1,inactive: -0.546%
21,COc1ccc(-n2c(-c3ccc(Cl)cc3)c[n+]3c2CCc2ccccc2-3)cc1,inactive: -0.166%
22,NS(=O)(=O)c1ccc(CCNCC(=O)NC2CC2)cc1,inactive: 5.85%
23,Nc1cc(S(=O)(=O)Nc2ccc(Cl)cc2)ccc1N1CCOCC1,inactive: 8.59%
24,CN(C)C=NC(=O)c1cc(C(=O)c2ccc(Cl)cc2Cl)c[nH]1,inactive: -7.65%
25,O=C(O)c1nn(-c2cccc(Cl)c2)c(=O)cc1O,inactive: 8.09%
26,CCC(=O)N1CCN(c2cc(N3CCN(C)CC3)c(F)cc2[N+](=O)[O-])CC1,inactive: -0.0877%
